# Measurements taken from the supplement of paper PMC3334620.
# The full ranking holds about 33,000 sequences; the median of “E-score (-0.5 to 0.5)” is about -0.043, and the highest 2% start at about 0.37. This is one part of the list.
# Target: T1, Upc2 (UniProt Q12151)
# T1 sequence: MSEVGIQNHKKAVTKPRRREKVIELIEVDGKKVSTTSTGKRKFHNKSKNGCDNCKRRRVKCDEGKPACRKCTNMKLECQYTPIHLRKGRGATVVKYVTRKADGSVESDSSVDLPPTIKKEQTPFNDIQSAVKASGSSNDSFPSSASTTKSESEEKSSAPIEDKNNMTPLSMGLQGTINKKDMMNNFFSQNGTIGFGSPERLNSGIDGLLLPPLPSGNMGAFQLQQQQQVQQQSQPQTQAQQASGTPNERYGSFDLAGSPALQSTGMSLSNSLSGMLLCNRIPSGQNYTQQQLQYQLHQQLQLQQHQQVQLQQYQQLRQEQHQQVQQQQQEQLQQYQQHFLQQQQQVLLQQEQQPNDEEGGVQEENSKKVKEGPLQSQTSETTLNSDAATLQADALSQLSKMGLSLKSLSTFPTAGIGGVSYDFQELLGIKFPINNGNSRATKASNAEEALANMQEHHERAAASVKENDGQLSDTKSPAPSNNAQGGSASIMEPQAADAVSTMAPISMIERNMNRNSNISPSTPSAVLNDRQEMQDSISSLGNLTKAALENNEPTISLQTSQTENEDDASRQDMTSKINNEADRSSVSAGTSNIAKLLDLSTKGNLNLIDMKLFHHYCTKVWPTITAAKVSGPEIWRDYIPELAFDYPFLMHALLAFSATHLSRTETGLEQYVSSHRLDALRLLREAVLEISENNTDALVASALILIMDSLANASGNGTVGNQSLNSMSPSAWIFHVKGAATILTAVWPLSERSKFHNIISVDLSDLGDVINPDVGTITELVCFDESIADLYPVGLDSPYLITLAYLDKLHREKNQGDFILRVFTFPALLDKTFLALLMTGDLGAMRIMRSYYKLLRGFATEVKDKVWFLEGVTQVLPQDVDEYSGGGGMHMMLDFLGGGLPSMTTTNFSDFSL
# Test: PBM E-score (8-mer binding enrichment) (E-score (-0.5 to 0.5)); higher = stronger / more preferred TF binding; most listed sequences are background and not binding sites
# Settings: protein concentration: 200 nM; construct: GST-full length
# Method in brief: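 Masliner-normalised scans of fluorescent anti-GST signal were the basis for scoring. That signal came from GST-tagged yeast transcription factors applied at about 100-200 nM to double-stranded universal all-10-mer Agilent arrays on fresh or once-stripped slides. Each ungapped eight-base word, pooled with its reverse complement, received an E-score from the Universal PBM Analysis Suite.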
row,Sequence,PBM E-score
1,GCCTTCCC,-0.232
2,TCGTACGA,0.471
3,ATATAATC,-0.158
4,AACCACGG,-0.164
5,AGGTCACT,-0.113
6,ACGGTAGG,0.0252
7,AGCGAACC,0.176
8,CTGGGTAC,0.14
9,AGTGGAAC,-0.0614
10,CAGGCTTA,-0.316
11,TCCGTAGA,-0.0263
12,TAAACCTA,0.104
13,CTCATCAA,-0.111
14,CGATAGCA,0.122
15,ATGATCTA,-0.00479
16,AAACCGTA,0.259
17,AATCATCC,-0.0451
18,ATTCGCTA,0.141
19,AGGGCGCC,-0.168
20,CATACGGC,0.383
21,GATATAGA,-0.0283
22,ACCAGTAC,0.154
23,ACTAGGCT,-0.00062
24,CACGCACC,-0.19

row,Sequence,PBM E-score
1,AGGCTAGA,-0.056
2,CCTTCTAG,-0.185
3,CTGTCTGC,-0.204
4,CTCAACCA,-0.267
5,CGACCCCA,-0.0943
6,ACGGTTGG,0.0991
7,AGTTAAGC,0.00193
8,ACTAACAC,0.087
9,AAGTCTCA,-0.265
10,CTAATGAA,0.0204
11,AAAGATAG,0.0184
12,AACGCATC,0.14
13,CCTAATCG,0.237
14,CTTTTGAA,-0.0826
15,CTTGGAGA,-0.101
16,CGCGAAAA,0.197
17,CGGTGCTC,0.0465
18,ATAATACG,0.309
19,AACGGAAA,0.216
20,CAGGCCCG,-0.233
21,CACTCACG,0.00181
22,ACATACTG,0.0774
23,CTGATACC,-0.106
24,AGAAATCG,-0.0457

row,Sequence,PBM E-score
1,GACTCATA,0.00139
2,CGGCGCTC,0.16
3,TCGCGTAA,0.303
4,AGTCTCGA,0.0343
5,CTTCTCCC,-0.0944
6,GTCCAGCA,-0.221
7,GGCACAAA,-0.0691
8,GACAAAGA,0.0147
9,CAGTGTAA,-0.0228
10,CACGAGCG,0.17
11,GGACCCAC,-0.11
12,AACCATTA,0.00366
13,AGGAGCTC,0.108
14,CCGGTCTA,-0.122
15,GAGGATGA,-0.0375
16,AGACCATC,-0.199
17,CAGGTCTA,-0.172
18,CACTCCTC,0.0441
19,CTACGACC,0.364
20,AGCTCCGG,-0.202
21,ATATTATA,0.205
22,ATACACCG,0.109
23,ACGGAAGA,0.16
24,CTGGTCAA,-0.17

row,Sequence,PBM E-score
1,CTAGACCA,-0.217
2,CGGCCTGA,-0.236
3,AAGCGGCC,-0.116
4,ATTTAGAA,-0.14
5,CCGTACCG,0.389
6,CCCTATGC,-0.22
7,AGAAAGCG,0.0648
8,ACTTCGGA,0.0617
9,CCTAAGGA,-0.0656
10,AGGCGACT,-0.217
11,CAACACCG,-0.22
12,CTATAGTC,0.0621
13,ACTTACAA,0.14
14,AAGAGTAA,0.009
15,ATTCCTCG,0.2
16,AACCGTAT,0.375
17,ACTCCCCA,-0.227
18,AGTGTCTA,0.0534
19,CCGCCCCA,-0.0721
20,CGTAATCA,0.197
21,CTTACTCC,0.0123
22,ATGGGTAA,-0.116
